In article PMC2376215 (The Journal of Biological Chemistry, 2008):

B1: full-length rat wild-type p97 (enzyme)
chain: not shown
B2: p97 R359A,R635A (SRH arginine finger mutant) (enzyme)
chain: not shown
B3: p97 K524A (D2 Walker A mutant) (enzyme)
chain: not shown
B4: p97 K251A,K524A (D1 and D2 Walker A mutant) (enzyme)
chain: not shown
B5: p97 K251A (D1 Walker A mutant) (enzyme)
chain: not shown

Target: the molecule itself
Assay: native gel or EMSA

Binding result, binds:
B1
B2
B3
B4
B5
